Test results as given in US9353185B2, “Antibodies” (Affitech Research AS, priority 2010, dated 2016).

B1: C-9P21: human anti-CXCR4 antibody; scFv SEQ ID NO: 35; IgG1/kappa heavy chain SEQ ID NO: 108, light chain SEQ ID NO: 109 (antibody)
heavy: QVQLQESGGGLVHPGGSLRLSCAASGFTFSSYWMHWVRQAPGKGLVWVSRINSDGSSTSYADSVKGRFTISRDNAKNTLYLQMNSLRAEDTAVYYCARKILGVGARSRRYFDYWGQGTMVTVSS[human IgG1 constant region left out]
light: ETTLTQSPGTLSLSPGERATLSCRASQSVVSNYLAWYQQKPGQAPRLLISGASNRATGISDRFSGSGSGADFTLTISRVEPEDSAVYYCQQFDKSTWTFGQGTKVEIKRTVAAPSVFIFPPSDEQLKSGTASVVCLLNNFYPREAKVQWKVDNALQSGNSQESVTEQDSKDSTYSLSSTLTLSKADYEKHKVYACEVTHQGLSSPVTKSFNRGEC
modifications: antibody sequence
B2: D-1K21: human anti-CXCR4 antibody; scFv SEQ ID NO: 68; IgG1/kappa heavy chain SEQ ID NO: 120, light chain SEQ ID NO: 121 (antibody)
heavy: [about 100 residues left out]RNLIAARPRNRGRDAFDIWGQGTMVTVSS[human IgG1 constant region left out]
light: DIQMTQSPSTLSASVGDRVTITCRASQSIGGSLAWYQQKPGKGPNLLIYAASTLQSGVPSRFSGSGSGTEFTLTISSLQPEDSATYYCQHYESYPLSFGGGTKLEIKRTVAAPSVFIFPPSDEQLKSGTASVVCLLNNFYPREAKVQWKVDNALQSGNSQESVTEQDSKDSTYSLSSTLTLSKADYEKHKVYACEVTHQGLSSPVTKSFNRGEC
modifications: antibody sequence

What was measured:
CXCR4 = target: T1, CXCR4 (Homo sapiens, UniProt P61073); assay: Inhibition of SDF-1α ligand induced Ca++ flux in CCRF-CEM cells (Fluo-4); format: cell-based; settings: for inhibition of SDF-1α-induced signalling, IgG level: IgG 10 or 100 μg/ml (9N10: 1 or 10 μg/ml); for antagonistic activity on SDF-1α induced Ca++ flux, scFv level: scFv 4 μg/ml; for antagonistic effect on Ca++ signalling induced by SDF1α binding to CXCR4 (overall): scFv and/or IgG
T1 construct: CRL-1596 (Ramos); host or cells: Ramos, Jurkat 6E-1, CCRF-CEM
T1 sequence (P61073 whole entry): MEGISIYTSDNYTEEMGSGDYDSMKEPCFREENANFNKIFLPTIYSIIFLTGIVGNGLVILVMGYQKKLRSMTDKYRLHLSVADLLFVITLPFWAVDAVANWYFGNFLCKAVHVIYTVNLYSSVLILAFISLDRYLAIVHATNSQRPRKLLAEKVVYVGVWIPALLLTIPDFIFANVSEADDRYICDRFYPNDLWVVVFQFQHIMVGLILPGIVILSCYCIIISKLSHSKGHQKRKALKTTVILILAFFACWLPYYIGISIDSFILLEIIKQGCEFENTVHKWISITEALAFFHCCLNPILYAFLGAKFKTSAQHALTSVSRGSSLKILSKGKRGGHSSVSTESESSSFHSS
Protocol: 9N10 was only tested on IgG level. The experiment was performed using the naturally CXCR4^+ positive cell line CCRF-CEM.
The CCRF-CEM target cells, were harvested by centrifugation and washed twice in RPMI-1640 culture medium. Either 1 ml with 2.5×10^6 cells (for IgGs) or 10 ml with 2.5×10^7 cells (for scFvs) were mixed with Fluo-4-AM (acetoxymethyl ester; Invitrogen), Pluronic F-127 (Invitrogen) and Probenecid to final concentrations of 1 μM, 0.02% and 1 mM respectively. The cells were incubated at 37° C. for 60 mM on a vertical rotating wheel (7 rpm). All subsequent steps were done in the presence of 1 mM Probenecid. The cells were washed twice in RPMI-1640 with 10% fetal calf serum (FCS), once in an assay buffer (145 mM NaCl, 4 mM KCl, 1 mM NaH2PO4, 0.8 mM MgCl2, 25 mM Hepes, 22 mM glucose) and then resuspended to a final density of 4×10^6 cells/ml. Equal volumes of cells, assay buffer with or without antibodies and ligand (SDF-1α) were mixed. The first two components (cells and antibodies) were pre-incubated for 15 min prior to adding the ligand, SDF-1α (final concentration 50 ng/ml). The final concentrations of antibodies were 10 μg/ml or 100 μg/ml for IgGs and 4 μg/ml for scFvs. The samples were immediately analyzed using the 515-545 nm band pass filter on a FACSCanto II (BD Biosciences). The areas under the curves (AUC) were integrated using software Prism (GraphPad) and plotted as percentage of AUC for maximal stimulation with SDF-1α alone.
The experiment was performed as described above, but the antibodies were used in a titration series with concentrations of 100, 20, 4, 0.8, 0.16, 0.032, 0.064 and 0.00128 μg/ml.

CXCR4+ Ramos cell line = assay: Induction of apoptosis (Annexin V / PI staining); format: cell-based, human; settings: IgG1 0.08 to 10 μg/ml, 48 hrs, versus background level
Protocol: The ability of anti-CXCR4 antibodies to induce apoptosis was assessed on the CXCR4^+ Ramos cell line.
Ramos cells were cultivated as described above.
The Ramos cells were harvested by centrifugation, washed twice in RPMI-1640 culture medium with 10% FCS and resuspended in RPMI-1640 medium with 10% FCS to a density of 3×10^5 cells/ml. The cell suspension (250 μl) was mixed with the same volume of either antibody to be tested in dilutions (final concentration of 0.08 to 10 μg/ml) or staurosporin (25 nM) in wells of a 24-well plate and incubated at 37° C. for 48 hrs. The cells were collected by centrifugation and washed in Annexin V Binding Buffer (10 mM Hepes, 140 mM NaCl, 2.5 mM CaCl2, 0.2% BSA, pH 7.4). The cells were harvested again and resuspended in 300 μl Annexin V Binding Buffer. Both FITC-conjugated Annexin V and propidium iodide (PI) were mixed with 240 μl cell suspension resulting in a final concentration of PI of 0.2 μg/ml. The samples were analyzed immediately after adding the ligand using the 515-545 nm and 610/20 nm band pass filters on a FACSCanto II flow cytometer (BD Biosciences). The apoptotic cells were defined as Annexin V positive/PI negative and the dead cells were defined as PI positive.

Ramos cells = assay: Complement dependent cytotoxicity (CDC) in presence of human serum, calcein-AM release; format: cell-based; settings: IgG
Protocol: To test whether the anti-CXCR41 IgGs described herein are able to mediate complement dependent cytotoxicity, CDC experiments have been performed using Ramos cells which are derived from Burkitt's B-cell lymphoma and have constitutive expression of CXCR4.
Ramos cells were maintained as described above.
The Ramos cells, were sedimented by centrifugation and washed twice in RPMI-1640 culture medium. 2.5×10^6 cells/ml was mixed with calcein-AM (Invitrogen) to a final concentration of 10 μM and then incubated at 37° C. for 30 min. The cells were washed three times in RPMI-1640 with 10% FCS and the cell density was adjusted to 4×10^6 cells/mL. A 25 μl aliquot of labelled target cells and 25 μl of human serum were mixed in the wells in a 96-well microtiter plate. Dilutions of the antibodies (all in IgG format) were added to the same wells in 50 μl volume thus resulting in a final antibody concentration ranging from 5×10^−5 to 5×10^4 ng/ml. Twenty μl 0.9% Triton-X100 was added to control wells to achieve complete lysis of the target cells (maximal lysis defining 100%). The microtiter plate was incubated for 1 hr at 37° C. […] The fluorescence (excitation at 488 nm, emission at 518 nm) was recorded using a TECAN M200 plate reader. […] The fluorescence intensity of the samples without antibodies was subtracted as a background and the percentage of specific lysis in samples with antibodies was calculated. […]

[1] = target: T2, monkey (Macaca mulatta) CXCR4 (Macaca mulatta, UniProt P79394); assay: Species cross reactivity: binding to HEK-293 cells transiently expressing monkey CXCR4; settings: scFv level, transiently transfected HEK-293 cells
T2 construct: expressed in transfected cells; host or cells: HEK-293 (HEK293T/17), transient transfection with Fugene
T2 sequence (P79394 whole entry): as the sequence (P61073 whole entry) above, with M24I, N35H, K38R, R146K, N176S, V214D counted along it
Protocol: (§1) The antibody candidates were tested on scFv level for their ability to cross-react with CXCR4 from monkey and mouse.
(§2) HEK293T/17 cells were maintained as described above.
(§3) FACS-binding analyses (EasyCyte) were performed using HEK-293 cells transiently transfected with plasmids encoding either, mouse (Gene bank accession number BC031665) or monkey (Macaca mulatta) CXCR4 (NCBI Accession number NP_001036110). Two experiments were performed, one using α-cMyc and PE-labelled goat anti-mouse IgG antibody, the second using a directly conjugated RPE-c-Myc antibody for detection. In addition, cross-reactivity on IgG level was analysed. In the latter case, antibody binding was detected with PE-conjugated goat anti-human IgG antibody.

mouse CXCR4 = target: T3, mouse CXCR4 (Mus musculus, UniProt P70658); assay: Species cross reactivity: binding to HEK-293 cells transiently expressing mouse CXCR4; settings: scFv level; transiently transfected HEK-293 cells
T3 construct: expressed in transfected cells; host or cells: HEK-293 (HEK293T/17), transient transfection with Fugene
T3 sequence (P70658 whole entry): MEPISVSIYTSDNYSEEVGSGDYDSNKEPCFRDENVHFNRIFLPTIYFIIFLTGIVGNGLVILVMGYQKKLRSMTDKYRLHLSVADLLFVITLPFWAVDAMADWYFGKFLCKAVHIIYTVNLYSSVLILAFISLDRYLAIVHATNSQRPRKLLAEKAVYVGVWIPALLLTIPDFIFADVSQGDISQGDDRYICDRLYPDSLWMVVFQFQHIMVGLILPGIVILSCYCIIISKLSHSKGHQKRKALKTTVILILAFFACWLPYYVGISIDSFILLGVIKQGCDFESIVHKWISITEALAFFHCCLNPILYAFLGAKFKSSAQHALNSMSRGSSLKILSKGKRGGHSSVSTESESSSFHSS
Protocol: as §1, §2, §3

| Molecule | inhibition of SDF-1α-induced signalling, IgG level (CXCR4) | antagonistic activity on SDF-1α induced Ca++ flux, scFv level (CXCR4) | antagonistic effect on Ca++ signalling induced by SDF1α binding to CXCR4 (overall) (CXCR4) | induction of apoptosis (Annexin V positive/PI negative cells) (CXCR4+ Ramos cell line) | CDC activity against Ramos cells (words) (Ramos cells) | cross-reactivity with monkey CXCR4 [1] | cross-reactivity with mouse CXCR4 (mouse CXCR4) | cross-reactivity with monkey CXCR4 ([1]; listed as D1K21) |
| --- | --- | --- | --- | --- | --- | --- | --- | --- |
| B1 | inhibition of SDF-1α-induced signalling was demonstrated | strong antagonistic activity | capable of inhibiting ligand induced signalling via CXCR4; also recorded: most prominent effect | no apoptosis was induced above the background level | do not induce CDC | bind to both human CXCR4 and monkey CXCR4; also recorded: good cross-reactivity | intermediate |  |
| B2 | only marginally inhibitory at high concentration | strong antagonistic activity | capable of inhibiting ligand induced signalling via CXCR4 | no apoptosis was induced above the background level | do not induce CDC | good cross-reactivity | good cross-reactivity | bind to both human CXCR4 and monkey CXCR4 |

“Also recorded” adds a separate entry of the source.
